Over roughly 4,500 sequences, “median log2 fold change of GCK-ALFA target abundance (FLAG IP / Myc IP barcode read proportion)” has its median near 0.078; the lowest 2% begin near -0.6. This is one part of the list.

To fix the notation:
B1: GBRAP_160_4433 (protein)
chain: SATLDKAIANIKALTDEAAEMMAGQSAAQRQTVVRVMEGEILLELEDLGLLTDELDALIEASTAAIVADIEANPDISQAELTARLQAHADAVAALLKKLF
B2: GBRAP_184_5270 (protein)
chain: TVVRVELEAATAEEAIAALRAAAAAARAAGAQLELTILLRGASVEGVIALLDLLAELKAEGVVRAATVGVELDATEEEVDTLVAAADAAGVRLVIALPEE
B3: GBRAP_14_3811 (protein)
chain: KEKLIEEIKKILEELRRELVEELGLDEKEVRELIERAIKEIEEAIETKENPEEEIEKIMDELRAEIEKLAAAKGADVAAGARALVDDAEYEIDEAIEKYS
B4: GBRAP_160_4613 (protein)
chain: SAKMEKLKKEVNELFEEAKEMVKGETPENRATIVDVTIGQIILLAEELEVLSDESLEKIDEIGDELVDYIKENPDLTDEEIEELIDEAREKILKIIDEDE
B5: GBRAP_78_6696 (protein)
chain: EVEELLEELLKKIGEFATELSKIDTPLAQEALGHLVDAADYVHEAIETGGDEEHLKEANKHLKKALELLKQLDPELAERFEKEVLELLKEIAEKLGIELE
B6: GBRAP_128_3167 (protein)
chain: SSEETVEKVRKLAEEMIKASKEEAKKLAKEIADIFLEADLETAEKIAEVIIELLPKMTEEHLEILMDVLREKLPLFTPEKQELANEVMVAAGEQILELEE
B7: GBRAP_53_6391 (protein)
chain: GEERLEELIEELNRLIEELKTADPETAIKLAREAVELLLELAELGLPEEELVELVRRFAEAARPKPELEPVLVELAKRLAALGREEAAAEVAEALVEELE
B8: GBRAP_11_2857 (protein)
chain: KKEKLKEAAELARKAAEALEKLLKEGVDDKELQKKIEELLKKLLELVKEYGDPDLIKLAEIALENFQKAKKDPKNAEKYIKEALAAVRVLEGNLLLEIDE
B9: GBRAP_106_2563 (protein)
chain: SKLEELKEFFEKTLKEEMAKVPAVTAEIVARFGEDAAEATAAVTAHAFDYVNNKVAEKMKSLGIDNPELIKRLRDTLHELKDAPLEEQIEAGKKVIEEGF
B10: GBRAP_160_4036 (protein)
chain: DPKLEKLKEFAKEVFEEAKELVEGETVEQAANIVAVAAGEVIMEAEELGIDDDELEDFIDEVGDEAVAYLLANPDLTEEEIKKLIEEAREKILEEIEKRS
B11: GBRAP_160_4547 (protein)
chain: SEKVEELIKDLKERTEFIKSLVDEVSIDELINAVDVEFGSFILEGVELGVLSDELEEELDEIRDELIKKLKENKNASPEEKKKMIEEATEKMIEALKKES
B12: GBRAP_172_5009 (protein)
chain: EPVLIRVVIDSEDAEEAIEEIRRVLEEASKKKDAIVAIAVRVSDEEKAERVEEESERLAKKYPNVVVEIAVTYDPSLDLEKIAEALLLEAEEEYEERKKK
B13: GBRAP_11_2635 (protein)
chain: KKEIIEKAAKLAAEAEKLLEKLLKEGVDNEKLLEELEKKLEELKKLVEKLGNKALINEVEVAEELLKKLKEDPENAEFYANLLLAQIRIIKADLEELLEE
B14: GBRAP_184_5121 (protein)
chain: AVEHRSVEGEKAEELIAKATAVVEEAAAAGKKLVLHVFAKNMSVEEIIRVIEHLGALKKAYPQVEIILHVEDERSEEEVDKIVEAADKAGVRVVIALKEE
B15: GBRAP_160_4234 (protein)
chain: SEVVEKLVKVVRDTFLEALELIEGESLEERKVILDVAVGEVILEASEIEGVTDEMEEVVDEMSEKLAEELLKARDKSLEEKKKLVEKMVEKLRKELEKLA
B16: GBRAP_160_4391 (protein)
chain: MEAFKKLAEEVKEILDEAIKLIEGESKEERRVIVDVALGEILLAAFSNDALSDEQEEEIAEILDRGRERIREAIEEGLEAVVKELERTREELLEAIEKSA
B17: GBRAP_125_3088 (protein)
chain: AEAALAADLRTFALALGLSEADAAEAAALAAASSVRQTLYAIFAAEGWEELAELVEKLTEEQARAVLRALAADLAANPDLSVEEVKARARALIEEALAAA
B18: GBRAP_24_5420 (protein)
chain: KKVKVTIDIIANLSPENEKKAQELAKEVAEKIKTLTPEEAAKAVKEFLEKVASLVDNELSVVTLEIETDEEKAEAIIDAALEAEKEIGNVKVVIGTEDLE
B19: GBRAP_78_6595 (protein)
chain: KVEELLDKAMEELGKAEKLAAKLPEEKANEILDELVEAASYLLEAEENGYDLKYFEEALKELKKALELAKKLDLPEAPELIKELEKAIEYLEKAIEELKK
B20: GBRAP_128_3318 (protein)
chain: MDEERLAEFEALAKALKTADEAEAAKLTAEMVALIGELNEEEREKAAEIFEKALKELDAAKLDVVADTLREERPKLDPLAARVVADLEVEALNLAEEKEE
B21: GBRAP_57_6441 (protein)
chain: MSRLEKAEELAEKIRKMLEENAPKEEILKAFKELLDLLSREGLLDLALLLDPSARADDSKEELKEKLLEIFRKALEEEGKEAALDMVDLALGVLEMEESE
B22: GBRAP_160_4047 (protein)
chain: SEKVKKAKEFATKEFDETIALMEDLSPEEAAVAMEVTVGQVLLEAEELGIETTPELDKVLDRARAMRAAVRADPSTTVEQVIAAAKELREEFLKALEKQD
B23: GBRAP_74_6557 (protein)
chain: SAEFRARVEAARAARDLDALIALAREALEAGDKENALLALEAALELFREHREEVSPEQIAALADVIAALYEKVDMLDLSDELLRAMAEALAAAVEAEKAA
B24: GBRAP_128_3273 (protein)
chain: MNEEVVAFAKEKVEKIKNSNDEEKREIAREIMERILASSLEEAEAMIEVIEEKLPELSAEDLDILADVAREARPKASPEKANLIAGLEVEALNQAEELEE
B25: GBRAP_184_5333 (protein)
chain: TTLRVHIENKSTEEIIKEVEEALKEAAAKGADLLVTIDASGYSTEELEKILEEIGELAKKEGVKNLTIGIDKEVTEEEADKLIKIADKYGIKLVLALSDE
B26: GBRAP_35_5545 (protein)
chain: DFDEETVEMLLNTMEDIVLALPDVSPEEKLILARHLIDLAEKAIEEKPKNVELLKRGIEVLERAIEIVKASDLPEEEREELIERLEEVKEKFEKLLKENE
B27: GBRAP_52_6335 (protein)
chain: MEEKIKEYAEKIVEAVKAGDEEKALALTREAAKNFSLEEVREMMKLYAELAVKELPDKEDLVFETAEKLADVIEEETGDEVLADEFEAYTARLLYERSLA
B28: GBRAP_125_2987 (protein)
chain: SEEELLEDLRRLARALGLSEEEAEELVRLAREHSVRQTLYALALALGWEEVAEAVARLTEEEAREVVRRATEEILANPDMTPEEVVELLLRLAREALARR
B29: GBRAP_139_3724 (protein)
chain: AALEKAKKEAKELVKKYRNDLEKLAKELAELIASVDDETALAIAEAAAEELKDWSWEEWEEFIELLSKELKKLGLEEDRILAIEGTLEAVAAKHLIEKEK

GABARAP, O95166, sequence (O95166 whole entry, the tested form may be a part): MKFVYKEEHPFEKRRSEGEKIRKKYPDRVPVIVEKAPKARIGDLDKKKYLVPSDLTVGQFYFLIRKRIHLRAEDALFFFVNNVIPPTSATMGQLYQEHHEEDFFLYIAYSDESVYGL

In this assay the target is GABARAP, O95166. The experiment in a line: median log2 fold change of GCK-ALFA target abundance (FLAG IP / Myc IP barcode read proportion) (log2 ratio); each designed protein is fused to an ALFA-tag nanobody in HEK293 cells to bring the named protein to FLAG-tagged glucokinase (GCK); Myc marks an untargeted standard; higher = target protein stabilised (more abundant). Conditions: target protein: 3xFLAG-MCP-GCK-ALFA reporter; HEK293 landing pad (RPLP). In outline:
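An ALFA-nanobody-fused binder library was recombined into HEK293 landing-pad cells and induced with 2 μg mL^−1 doxycycline. Cells were transfected with a plasmid expressing a FLAG-tagged target and a Myc-tagged standard. After 48 h, lysates underwent anti-FLAG and anti-Myc immunoprecipitation, and circular RNA barcodes were reverse transcribed, amplified and sequenced. Target abundance is the per-binder median log2 ratio of FLAG to Myc barcode read proportions. Barcodes needed ≥10^−7 proportion in both replicates, binders ≥3 barcodes per replicate, and a 10^−6 pseudocount was added; the two replicates were pooled.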
For the molecule B1, the “median log2 fold change” value is -0.0508. The figure for B2 is -0.26. As for B3, the “median log2 fold change” value worked out at 0.612.

Regarding B4, the “median log2 fold change” value is -0.315. In the case of B5, the “median log2 fold change” value was found to be 0.243. The figure for B6 is 0.235; for B7 it is 0.2. The figure for B8 is 0.0648; for B9 it is 0.276.

Regarding B10, the “median log2 fold change” value was -0.404. The result for B11 reads 0.00329. The result for B12 reads 0.0492; that for B13, 0.191. For the molecule B14, the “median log2 fold change” value amounted to 0.0756. The result for B15 reads -0.29; that for B16, -0.2. The result for B17 reads 0.115; that for B18, -0.311.

In the case of B19, the “median log2 fold change” value worked out at 0.326. As for B20, the “median log2 fold change” value was 0.374.

B21: the “median log2 fold change” value was -0.0352. The result for B22 reads 0.0852; that for B23, -0.242; that for B24, 0.283. The result for B25 reads 0.018; that for B26, 0.127. Turning to B27, the “median log2 fold change” value came out at 0.13.

Regarding B28, the “median log2 fold change” value was -0.38. The figure for B29 is -0.224.
